Experimental data reported in the antibiotic and cytotoxicity screens of Wong et al. (2023).
The other results are listed elsewhere or left out.

test system: HSkMC (human skeletal muscle cells); test: cytotoxicity call (relative viability < 0.9); details: 10 µM

SMILES	cytotoxicity call
COc1cccc(NC(=O)N(C)C[C@@H]2Oc3cc(C#Cc4ccncc4)ccc3S(=O)(=O)N([C@@H](C)CO)C[C@@H]2C)c1	inactive
O=C(CCCCCNC(=O)OCc1ccc(CO[C@H]2C[C@@H](c3ccc(Br)cc3)C=C(C(=O)N3CCN(Cc4ccc5c(c4)OCO5)CC3)O2)cc1)NO	inactive
Cc1noc(C)c1NC(=O)N(C)C[C@@H]1Oc2ccc(NC(=O)CCN3CCOCC3)cc2CC(=O)N([C@H](C)CO)C[C@@H]1C	inactive
NCc1cccc(N2CCCC2)c1	inactive
COc1ccccc1CNC(=O)C[C@H]1C[C@@H]2c3cc(NS(=O)(=O)c4ccc(F)cc4)ccc3O[C@@H]2[C@H](CO)O1	inactive
CC(C)NC(=O)N(C)C[C@H]1Oc2c(NS(=O)(=O)c3cn(C)cn3)cccc2C(=O)N([C@@H](C)CO)C[C@H]1C	inactive
Cc1ccc(S(=O)(=O)N(C)C[C@H]2OCCCC[C@@H](C)Oc3ccc(NC(=O)Nc4ccc5c(c4)OCO5)cc3C(=O)N([C@@H](C)CO)C[C@@H]2C)cc1	inactive
C[C@@H]1CN([C@H](C)CO)C(=O)c2cc(NS(=O)(=O)c3cn(C)cn3)ccc2O[C@@H]1CN(C)Cc1ccc2c(c1)OCO2	inactive
COC(=O)C1(C)CCCC2(C)c3ccc(O)c(C(C)C)c3CCC12 (stereo unspecified)	active
C[C@H](CO)N1C[C@H](C)[C@@H](CN(C)S(=O)(=O)c2ccccc2F)Oc2cc(C#Cc3cccc(F)c3)ccc2S1(=O)=O	inactive
CC1CCC2(OC1)OC1CC3C4CCC5CC(O)CCC5(C)C4CCC3(C)C1C2C (stereo unspecified)	inactive
